According to patent US7619094B2, “Ketoamides with cyclic P4's as inhibitors of NS3 serine protease of hepatitis C virus” (Schering Corporation, priority 2004, dated 2009):

The molecules below were run against Recombinant heterodimeric HCV NS3/NS4A protease (strain 1a) (Hepatitis C virus genotype 1a, UniProt P27958) (assay: HCV continuous assay (spectrophotometric HCV NS3/NS4A serine protease inhibition assay)). Conditions: Table 1; ranges of Ki* values in HCV continuous assay.
Format: biochemical, HCV (strain 1a)
`CCCCC(NC(=O)[C@@H]1[C@@H]2[C@H](CN1C(=O)[C@@H](NC(=O)N[C@H](CN1Cc3sccc3S1(=O)=O)C(C)(C)C)C1CCCCC1)C2(C)C)C(=O)C(=O)NCC` (stereo partly drawn) [Compound 5245] gave a Ki of at most 0.05 µM.
With `C#CCCC(NC(=O)[C@@H]1[C@@H]2[C@H](CN1C(=O)[C@@H](NC(=O)N[C@H](CN1CCCN(C)S1(=O)=O)C(C)(C)C)C(C)(C)C)C2(C)C)C(=O)C(=O)NCC=C` (stereo partly drawn) [Compound 5168] the Ki was at most 0.05 µM.
For `CCCCC(NC(=O)[C@@H]1[C@@H]2[C@H](CN1C(=O)[C@@H](NC(=O)N[C@H](CN1Cc3sccc3S1(=O)=O)C(C)(C)C)C(C)(C)C)C2(C)C)C(=O)C(N)=O` (stereo partly drawn) [Compound 5161], the Ki was at most 0.05 µM.
For `CC(C)(C)[C@H](NC(=O)N[C@H](CN1CCCNS1(=O)=O)C(C)(C)C)C(=O)N1C[C@H]2[C@@H]([C@H]1C(=O)NC(CC1CC1)C(=O)C(N)=O)C2(C)C` (stereo partly drawn) [Compound 5215], the Ki was at most 0.05 µM.
Molecule `C=CCNC(=O)C(=O)C(CCC)NC(=O)[C@@H]1[C@@H]2[C@H](CN1C(=O)[C@@H](NC(=O)N[C@H](CN1Cc3sccc3S1(=O)=O)C(C)(C)C)C(C)(C)C)C2(C)C` (stereo partly drawn) [Compound 5139] has a Ki of at most 0.05 µM.
In the case of `C=CCNC(=O)C(=O)C(CCC)NC(=O)[C@@H]1[C@@H]2[C@H](CN1C(=O)[C@@H](NC(=O)N[C@H](CN1CCN(C)S1(=O)=O)C(C)(C)C)C(C)(C)C)C2(C)C` (stereo partly drawn) [Compound 5150], the Ki is reported as at most 0.05 µM.
Work on `CCCC(NC(=O)[C@@H]1[C@@H]2[C@H](CN1C(=O)[C@@H](NC(=O)N[C@H](CN1CCCS1(=O)=O)C(C)(C)C)C(C)(C)C)C2(C)C)C(=O)C(=O)NC` (stereo partly drawn) [Compound 5122] yielded a Ki of at most 0.05 µM.

Same assay, conditions: Table 2; ranges of Ki* values in HCV continuous assay
In the case of `CC(C)(C)[C@H](NC(=O)N[C@H](CN1CCCCC1=O)C(C)(C)C)C(=O)N1C[C@H]2[C@@H]([C@H]1C(=O)NC(CC1CC1)C(=O)C(N)=O)C2(C)C` (stereo partly drawn) [Compound 5643], the Ki is reported as at most 0.05 µM.
In the case of `CCCCC(NC(=O)[C@@H]1[C@@H]2[C@H](CN1C(=O)[C@@H](NC(=O)N[C@H](CN1C(=O)COCC1=O)C(C)(C)C)C(C)(C)C)C2(C)C)C(=O)C(N)=O` (stereo partly drawn) [Compound 5699], the Ki is reported as at most 0.05 µM.
Work on `C=CCNC(=O)C(=O)C(CC1CC1)NC(=O)[C@@H]1[C@@H]2[C@H](CN1C(=O)[C@@H](NC(=O)N[C@H](CN1Cc3ccccc3C1=O)C(C)(C)C)C1CCCCC1)C2(C)C` (stereo partly drawn) [Compound 5768] yielded a Ki of at most 0.05 µM.
Molecule `C=CCNC(=O)C(=O)C(CCC)NC(=O)[C@@H]1[C@@H]2[C@H](CN1C(=O)[C@@H](NC(=O)N[C@H](CN1C(=O)Cc3ccccc3C1=O)C(C)(C)C)C(C)(C)C)C2(C)C` (stereo partly drawn) [Compound 5733] has a Ki of at most 0.05 µM.
`C=CCNC(=O)C(=O)C(CCC)NC(=O)[C@@H]1[C@@H]2[C@H](CN1C(=O)[C@@H](NC(=O)N[C@H](CN1CCCNC1=O)C(C)(C)C)C1CCCCC1)C2(C)C` (stereo partly drawn) [Compound 5713] showed a Ki of at most 0.05 µM.
Molecule `C=CCNC(=O)C(=O)C(CCCC)NC(=O)[C@@H]1[C@@H]2[C@H](CN1C(=O)[C@@H](NC(=O)N[C@H](CN1Cc3ccccc3C1=O)C(C)(C)C)C(C)(C)C)C2(C)C` (stereo partly drawn) [Compound 5748] has a Ki of at most 0.05 µM.
In the case of `C=CCNC(=O)C(=O)C(CCCC)NC(=O)[C@@H]1[C@@H]2[C@H](CN1C(=O)[C@@H](NC(=O)N[C@H](CN1Cc3ccccc3CC1=O)C(C)(C)C)C(C)(C)C)C2(C)C` (stereo partly drawn) [Compound 5729], the Ki is reported as at most 0.05 µM.
`C=CCNC(=O)C(=O)C(CCC(F)(F)F)NC(=O)[C@@H]1[C@@H]2[C@H](CN1C(=O)[C@@H](NC(=O)N[C@H](CN1CCOC1=O)C(C)C)C(C)(C)C)C2(C)C` (stereo partly drawn) [Compound 5616] gave a Ki of at most 0.05 µM.
In the case of `C=CCNC(=O)C(=O)C(CC1CCC1)NC(=O)[C@@H]1[C@@H]2[C@H](CN1C(=O)[C@@H](NC(=O)N[C@H](CN1CCCCC1=O)C(C)(C)C)C1CCCCC1)C2(C)C` (stereo partly drawn) [Compound 5717], the Ki is reported as at most 0.05 µM.
Work on `C#CCCC(NC(=O)[C@@H]1[C@@H]2[C@H](CN1C(=O)[C@@H](NC(=O)N[C@H](CN1C(=O)CNC1=O)C(C)(C)C)C(C)(C)C)C2(C)C)C(=O)C(=O)NCC=C` (stereo partly drawn) [Compound 5804] yielded a Ki of at most 0.05 µM.
`C=CCNC(=O)C(=O)C(CC1CC1)NC(=O)[C@@H]1[C@@H]2[C@H](CN1C(=O)[C@@H](NC(=O)N[C@H](CN1C(=O)COCC1=O)C(C)(C)C)C(C)(C)C)C2(C)C` (stereo partly drawn) [Compound 5691] gave a Ki of at most 0.05 µM.
